From PubChem BioAssay AID485294 (National Center for Advancing Translational Sciences (NCATS), 2010)
Screen size: about 370,000 compounds; about 150 (0.041%) were called active. Inconclusive means that the source gave no clear call. Such entries were picked first, then a sample of the others. Calls come from the whole dose curve; as a rule, active = well fitted inhibition curve with a large enough effect; inconclusive = small, poorly fitted or top-dose-only effect; inactive = flat fitted curve, though single readings scatter. Potencies of inconclusive entries are left out as doubtful fits.

Biological target: Beta-lactamase (Escherichia coli (strain K12)) (UniProt P00811)
Sequence of UniProt P00811 (P00811 whole entry, looked up): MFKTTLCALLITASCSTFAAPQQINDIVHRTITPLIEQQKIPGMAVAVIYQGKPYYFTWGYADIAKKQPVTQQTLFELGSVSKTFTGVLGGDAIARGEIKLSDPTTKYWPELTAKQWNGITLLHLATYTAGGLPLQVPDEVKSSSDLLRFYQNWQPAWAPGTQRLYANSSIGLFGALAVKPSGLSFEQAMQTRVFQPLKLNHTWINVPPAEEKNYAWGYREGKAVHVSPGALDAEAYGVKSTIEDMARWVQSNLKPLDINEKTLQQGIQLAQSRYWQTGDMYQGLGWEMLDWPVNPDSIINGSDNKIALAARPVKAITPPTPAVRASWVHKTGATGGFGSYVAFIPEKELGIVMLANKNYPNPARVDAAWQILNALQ
Experiment: qHTS Inhibitors of AmpC Beta-Lactamase (assay with detergent); note: nearly all actives have a fitted effect of over 25% in size
Conditions: AmpC hydrolysis of nitrocefin, absorbance 480 nm, 0.01% Triton; series mostly up to 114 µM
How it was run: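 AmpC (5.3 nM in the dispensed reagent) in 20 mM phosphate pH 7.0 with 0.01% (detergent screen) or 0.0001% Triton X-100 was preincubated with compounds for 15 min at room temperature. Nitrocefin was then added from an 800 uM solution, and hydrolysis was followed at 480 nm.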
Potency is the fitted concentration of half-maximal effect; tags give direction and shape of the fitted curve.

| Structure (SMILES) | Potency |
| --- | --- |
| CC(C)(C)c1ccc(O)c(CN2CCN(c3ccccc3)CC2)c1 | inactive |
| Cn1c(=O)c2c(nc(N3CCOCC3)n2C)n(C)c1=O | inconclusive [inhibitor, full curve, poor fit] |
| COc1ccc(S(=O)(=O)N2CCC(C(=O)NCc3ccccn3)CC2)cc1Cl | inconclusive [inhibitor, partial curve] |
| COc1ccc(OC)c(NC(=O)CSc2nc3ccccc3c3nc4ccccc4n23)c1 | inconclusive [inhibitor, single point] |
| CCOC(=O)C(C)Sc1nc(C2CC2)cc(C(F)(F)F)c1C#N (stereo unspecified) | inconclusive [inhibitor, full curve, poor fit] |
| COc1ccc(/C=N/Nc2cc(N(C)C)nc(N(C)C)n2)cc1 | inactive |
| CCc1ccc(NC(=O)CC2C(=O)N(c3cccc(C)c3)C(=O)N2Cc2ccc(F)cc2)cc1 (stereo unspecified) | inconclusive [inhibitor, partial curve] |
| Cc1ccccc1C(=O)Nc1ccnn1C1CCN(Cc2cnn(C)c2)CC1 | inconclusive [inhibitor, full curve, poor fit] |
| O=S(=O)(c1ccc(SCCOc2ccccc2)nc1)N1CCCC1 | inconclusive [inhibitor, full curve, poor fit] |
| CC(=O)n1cc([C@H]2C=C(C(=O)N3CCN(Cc4ccc5c(c4)OCO5)CC3)O[C@@H](OCCCCO)C2)c2ccccc21 | inactive |
| Cc1nnc(NC(=O)CSc2nc3ccccc3o2)s1 | inconclusive [inhibitor, single point] |
| CN(CCN1CCc2ccccc2C1)Cc1nc(-c2ccc3c(c2)OCO3)no1 | inactive |
| Cn1nnc2cc(C(=O)NC(C)(C)C)ccc21 | inconclusive [inhibitor, full curve] |
| COc1ccc(CN2CCN(C3CCC3)CC2CCO)c(C)c1C (stereo unspecified) | inconclusive [inhibitor, full curve, poor fit] |
| Cc1cc(C)cc(C(=O)N2CCN(c3ccccn3)CC2)c1 | inactive |
| COc1ccc(N=C(C)C2=C(O)COC2=O)cc1 | inconclusive [inhibitor, full curve, poor fit] |
| Cc1cccc(OCC2=N/C(=C\N(C)C)C(=O)O2)c1 | inconclusive [inhibitor, partial curve] |
| COc1ccc2nc(SCC(=O)NCc3ccccc3)[nH]c2c1 | inactive |
| COc1ccc(C(CNC(=O)Cc2ccccc2)N2CCCCC2)cc1 (stereo unspecified) | inconclusive [inhibitor, single point] |
| O=C(COC(=O)CNC(=O)c1cccc([N+](=O)[O-])c1)Nc1ccccc1OC(F)F | inconclusive [inhibitor, full curve, poor fit] |
| Cc1cc(C(=O)OCC(=O)Nc2ccccc2F)c(C)n1C1CC1 | inconclusive [inhibitor, partial curve] |

| Structure (SMILES) | Potency |
| --- | --- |
| CC1CCCCC12NC(=O)N(CC(=O)Nc1cccc(S(=O)(=O)N3CCCCC3)c1)C2=O (stereo unspecified) | inconclusive [inhibitor, single point] |
| NC(=O)C1(N2CCCCC2)CCN(Cc2ccccc2Cl)CC1 | inconclusive [inhibitor, partial curve, poor fit] |
| Cc1nc(N)c(Br)c(C)c1Br | inconclusive [inhibitor, full curve, poor fit] |
| CCOC(=O)c1nn(-c2ccc(C)c(Cl)c2)c(=O)c(C#N)c1C | inconclusive [inhibitor, full curve] |
| CCOC(=O)N1CCN(C(=O)c2cc(S(=O)(=O)N3CCc4ccccc43)ccc2OC)CC1 | inconclusive [inhibitor, full curve, poor fit] |
| COc1ccc(/C(N)=N/OC(=O)Cc2cccs2)cc1 | inactive |
| CN(C)c1ccc(NC(=O)Nc2ccc3c(c2)nnn3C)cc1 | inconclusive [inhibitor, full curve, poor fit] |
| Cc1cc(Nc2ccc(F)c(Cl)c2)n2nc(C)nc2n1 | inactive |
| CCOc1ccc(NC(=O)CC2C(=O)N(c3cccc(C)c3)C(=O)N2Cc2cccs2)cc1 (stereo unspecified) | inactive |
| Cc1ccc(S(=O)(=O)N2CCCC2CNC(=O)C(=O)NCc2cccs2)cc1 (stereo unspecified) | inconclusive [inhibitor, full curve, poor fit] |
| Cc1cc(C(F)(F)F)nn1CC(=O)NNC(=S)Nc1cccc(Cl)c1 | inconclusive [inhibitor, full curve, poor fit] |
| CCC(Sc1nnc2c3ccccc3n(CC)c2n1)C(=O)Nc1nnc(C(C)C)s1 (stereo unspecified) | inactive |
| O=C(Nc1ccc2c(c1)OCO2)C1CCCN1C(=O)OCc1ccccc1 (stereo unspecified) | inconclusive [inhibitor, full curve] |
| COc1ccc(-c2csc(NC(=O)c3ccc(OCC(=O)N4CCOCC4)c(OC)c3)n2)cc1OC | inactive |
| CCN(CC(=O)Nc1cc(Cl)ccc1C)C(=O)C1CCCCC1 | inconclusive [inhibitor, single point] |
| C[C@H]1CC[C@@H]2[C@@H](C)[C@H]3[C@H](C[C@H]4[C@@H]5CC=C6C[C@@H](O[C@@H]7O[C@H](CO)[C@H](O)[C@H](O[C@@H]8O[C@H](CO)[C@@H](O)[C@H](O)[C@H]8O)[C@H]7O[C@@H]7O[C@@H](C)[C@H](O)[C@@H](O)[C@H]7O)CC[C@]6(C)[C@H]5CC[C@]34C)N2C1 | inactive |
| COc1ccccc1NC(=O)N1CCCC(C(=O)Nc2cccc(C)c2C)C1 (stereo unspecified) | inconclusive [inhibitor, partial curve, poor fit] |
| Cc1ccc(C)c(C2(O)CC(C)N(C)CC2C)c1 (stereo unspecified) | inconclusive [inhibitor, partial curve, poor fit] |
| CCn1c(COc2ccccc2C)nnc1SCC(=O)CC(=O)Nc1ccccc1OC | inconclusive [inhibitor, full curve, poor fit] |
| O=C(CSc1nc2ccccc2o1)NCc1ccc2c(c1)OCO2 | inconclusive [inhibitor, partial curve, poor fit] |
